# Data taken from a collection of fitness landscapes (doi:10.1016/j.celrep.2020.107928).
# In all, about 81,000 sequences were measured (“one-hybrid fitness for binding parS DNA”: median about -0.17, highest 2% from about 0.51 on). The list shows a part of the results.
# B1: Caulobacter ParB omega fusion; a variant is named by its letters at X, in order, B8GW30 (parent)
# chain: MESVVVGEPGMSEGRRGLGRGLSALLGEVDAAPAQAPGEQLGGSREAPIEILQRNPDQPRRTFREEDLEDLSNSIREKGVLQPILVRPSPDTAGEYQIVAGERAWRAAQRAGLKTVPIMVRELDDLAVLEIGIIENVQRADLNVLEEALSYKVLMEKFERTQENIAQTIGKSXSHVANXMRLLXLPDEVQSYLVSGELTAXHARAIAAAADPVALAKQIIEGGLSVRETEALARKAPNLSAGKSKGGRPPRVKDTDTQALESDLSSVLGLDVSIDHRGSTGTLTITYATLEQLDDLCNRLTRGI
# Variants of: B1
# Assay: one-hybrid fitness for binding parS DNA (scaled: cognate 1, non-cognate 0); higher = stronger binding
# Conditions: with parS DNA site
# How it was run: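 Fitness is the rescaled log change in variant-to-wild-type read ratio, measured by Illumina sequencing of plasmids before and after bacterial one-hybrid selection. The scale puts cognate at 1 and non-cognate at 0. Selection of Caulobacter ParB libraries, four specificity codons randomised, took place in E. coli USO with a HIS3 reporter, site 19 bp from the promoter, over 48 hours at 37°C on M9-minus-histidine with 0.1 mM IPTG and 5 mM 3-AT.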
row,Variant,one-hybrid fitness for binding parS DNA
1,DPFE,≤ 0.2
2,SYQT,≤ 0.2
3,QAKW,≤ 0.2
4,TSWG,≤ 0.2
5,RCNC,0.941
6,QFQI,≤ 0.2
7,TNET,≤ 0.2
8,TYPF,≤ 0.2
9,AEQK,≤ 0.2
10,FVKY,≤ 0.2
11,VETV,≤ 0.2
12,NQSR,≤ 0.2
13,PGHK,≤ 0.2
14,IYAR,≤ 0.2
15,MHTT,≤ 0.2
16,ILQS,≤ 0.2
17,EVVF,≤ 0.2
18,PYMN,≤ 0.2
19,CALT,≤ 0.2
20,QEIP,0.259
21,RKML,≤ 0.2
22,SAEQ,≤ 0.2
23,ARSA,≤ 0.2
24,GLFE,≤ 0.2
25,CLLK,≤ 0.2

row,Variant,one-hybrid fitness for binding parS DNA
1,VAKE,≤ 0.2
2,ECGM,≤ 0.2
3,QREH,≤ 0.2
4,HIRR,≤ 0.2
5,QISG,≤ 0.2
6,HKSE,≤ 0.2
7,TNLY,≤ 0.2
8,SPYY,≤ 0.2
9,KPGT,≤ 0.2
10,FMVT,≤ 0.2
11,CMID,≤ 0.2
12,TAHK,≤ 0.2
13,FEEV,≤ 0.2
14,GRAF,≤ 0.2
15,KKRA,≤ 0.2
16,PHAE,≤ 0.2
17,SKDG,≤ 0.2
18,LDTD,≤ 0.2
19,SETM,≤ 0.2
20,FDTG,≤ 0.2
21,AFSM,≤ 0.2
22,STPM,≤ 0.2
23,VREF,≤ 0.2
24,PWTI,≤ 0.2
25,IQVN,≤ 0.2

row,Variant,one-hybrid fitness for binding parS DNA
1,NFYG,≤ 0.2
2,RHKR,≤ 0.2
3,KYPV,≤ 0.2
4,ESTC,≤ 0.2
5,IWPR,≤ 0.2
6,SRME,≤ 0.2
7,HVNS,≤ 0.2
8,TFDL,≤ 0.2
9,RQDE,≤ 0.2
10,TEGG,≤ 0.2
11,VTYG,≤ 0.2
12,RIRT,0.848
13,PVLQ,≤ 0.2
14,HGIL,≤ 0.2
15,ACAC,≤ 0.2
16,WRNN,≤ 0.2
17,CTHN,≤ 0.2
18,KPKC,≤ 0.2
19,IPGL,≤ 0.2
20,FLRI,≤ 0.2
21,HTPR,≤ 0.2
22,RQIW,≤ 0.2
23,LCTR,≤ 0.2
24,PCAC,≤ 0.2
25,LIRR,≤ 0.2

row,Variant,one-hybrid fitness for binding parS DNA
1,KGWS,≤ 0.2
2,LMKI,≤ 0.2
3,CYHW,≤ 0.2
4,RQLM,0.301
5,LKNY,≤ 0.2
6,PEPS,≤ 0.2
7,AILM,≤ 0.2
8,QSQR,≤ 0.2
9,CANT,≤ 0.2
10,PKTQ,≤ 0.2
11,QQRQ,≤ 0.2
12,SEAF,≤ 0.2
13,SSDL,≤ 0.2
14,RNVR,≤ 0.2
15,DIKT,≤ 0.2
16,FSWS,≤ 0.2
17,RRMI,≤ 0.2
18,TSRC,≤ 0.2
19,RQLP,≤ 0.2
20,LQTY,≤ 0.2
21,PNHT,≤ 0.2
22,WDRL,≤ 0.2
